The other results are listed elsewhere or left out.
What was measured:
Assay in all cases: glycan array binding signal (z-score within array); higher = stronger binding
Settings in all cases: glycan notation: IUPAC condensed, linker removed
Gal3S6S(b1-4)GlcNAc6S = target: Gal3S6S(b1-4)GlcNAc6S
Outline: (§1)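 Negative Z-scores can be read as non-binding. The Z-score is calculated within each array and then averaged across arrays of one protein sequence at different concentrations or buffers and across linkers. Arrays, 3228 in all, were curated from the Consortium for Functional Glycomics database and kept only where the protein sequence was available.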

Gal4S(b1-4)GlcNAc = target: Gal4S(b1-4)GlcNAc
Outline: as §1

Gal4S6S(b1-4)GlcNAc = target: Gal4S6S(b1-4)GlcNAc
Outline: as §1

Gal6S(b1-4)Glc = target: Gal6S(b1-4)Glc
Outline: as §1

Gal6S(b1-4)Glc6S = target: Gal6S(b1-4)Glc6S
Outline: as §1

Gal6S(b1-4)GlcNAc = target: Gal6S(b1-4)GlcNAc
Outline: as §1

Gal6S(b1-4)GlcNAc6S = target: Gal6S(b1-4)GlcNAc6S
Outline: as §1

GalNAc(a1-3)Gal = target: GalNAc(a1-3)Gal
Outline: as §1

GalNAc(a1-3)GalNAc = target: GalNAc(a1-3)GalNAc
Outline: as §1

GalNAc(b1-3)Gal = target: GalNAc(b1-3)Gal
Outline: as §1

[1] = target: GalNAc(b1-3)Gal(a1-4)Gal(b1-4)GlcNAc
Outline: as §1

[2] = target: GalNAc(b1-3)Gal(a1-4)Gal(b1-4)GlcNAc(b1-3)Gal(b1-4)Glc
Outline: as §1

GalNAc(b1-3)GalNAc = target: GalNAc(b1-3)GalNAc
Outline: as §1

GalNAc(b1-4)GlcNAc = target: GalNAc(b1-4)GlcNAc
Outline: as §1

[3] = target: GalNAc(b1-4)GlcNAc(b1-2)Man(a1-3)[GalNAc(b1-4)GlcNAc(b1-2)Man(a1-6)]Man(b1-4)GlcNAc(b1-4)GlcNAc
Outline: as §1

Glc(a1-4)Glc = target: Glc(a1-4)Glc
Outline: as §1

Glc(a1-6)Glc(a1-6)Glc = target: Glc(a1-6)Glc(a1-6)Glc
Outline: as §1

Glc(b1-4)Glc = target: Glc(b1-4)Glc
Outline: as §1

Glc(b1-6)Glc = target: Glc(b1-6)Glc
Outline: as §1

GlcA(b1-3)Gal = target: GlcA(b1-3)Gal
Outline: as §1

GlcA(b1-3)GlcNAc = target: GlcA(b1-3)GlcNAc
Outline: as §1

GlcA(b1-6)Gal = target: GlcA(b1-6)Gal
Outline: as §1

[4] = target: GlcNAc(a1-3)Gal(b1-4)GlcNAc
Outline: as §1

[5] = target: GlcNAc(a1-4)Gal(b1-3)GlcNAc
Outline: as §1

[6] = target: GlcNAc(a1-4)Gal(b1-4)GalNAc
Outline: as §1

[7] = target: GlcNAc(a1-4)Gal(b1-4)GlcNAc
Outline: as §1

[8] = target: GlcNAc(a1-4)Gal(b1-4)GlcNAc(b1-3)Gal(b1-4)Glc
Outline: as §1

[9] = target: GlcNAc(a1-4)Gal(b1-4)GlcNAc(b1-3)Gal(b1-4)GlcNAc
Outline: as §1

[10] = target: GlcNAc(a1-4)Gal(b1-4)GlcNAc(b1-3)Gal(b1-4)GlcNAc(b1-3)Gal(b1-4)GlcNAc
Outline: as §1

[11] = target: GlcNAc(a1-4)Gal(b1-4)GlcNAc(b1-3)Gal(b1-4)[Fuc(a1-3)]GlcNAc(b1-3)Gal(b1-4)[Fuc(a1-3)]GlcNAc
Outline: as §1

[12] = target: GlcNAc(a1-6)Gal(b1-4)GlcNAc
Outline: as §1

[13] = target: GlcNAc(b1-2)Gal(b1-3)GalNAc
Outline: as §1

[14] = target: GlcNAc(b1-2)Man(a1-3)[GlcNAc(b1-2)Man(a1-6)]Man(b1-4)GlcNAc(b1-4)GlcNAc
Outline: as §1

[15] = target: GlcNAc(b1-2)Man(a1-3)[GlcNAc(b1-2)Man(a1-6)]Man(b1-4)GlcNAc(b1-4)[Fuc(a1-6)]GlcNAc
Outline: as §1

GlcNAc(b1-3)Gal = target: GlcNAc(b1-3)Gal
Outline: as §1

[16] = target: GlcNAc(b1-3)Gal(b1-3)GalNAc
Outline: as §1

GlcNAc(b1-3)Gal(b1-4)Glc = target: GlcNAc(b1-3)Gal(b1-4)Glc
Outline: as §1

[17] = target: GlcNAc(b1-3)Gal(b1-4)GlcNAc
Outline: as §1

[18] = target: GlcNAc(b1-3)Gal(b1-4)GlcNAc(b1-3)Gal(b1-4)GlcNAc
Outline: as §1

GlcNAc(b1-3)GalNAc = target: GlcNAc(b1-3)GalNAc
Outline: as §1

GlcNAc(b1-3)Man = target: GlcNAc(b1-3)Man
Outline: as §1

[19] = target: GlcNAc(b1-3)[GlcNAc(b1-4)][GlcNAc(b1-6)]GlcNAc
Outline: as §1

[20] = target: GlcNAc(b1-3)[GlcNAc(b1-6)]Gal(b1-4)GlcNAc
Outline: as §1

[21] = target: GlcNAc(b1-3)[GlcNAc(b1-6)]GalNAc
Outline: as §1

[22] = target: GlcNAc(b1-4)Gal(b1-4)GlcNAc
Outline: as §1

B1: MRCL (Homo sapiens), NP_872425.1 (protein)
chain: ATKVHFPFHTCDLRIDGDCFMVSSEADTYYRARMKCQRKGGVLAQIKSQKVQDILAFYLGRLETTNEVTDSDFETRNFWIGLTYKTAKDSFRWATGEHQAFTSFAFGQPDNHGLVWLSAAMGFGNCVELQASAAFNWNNQRCKTRNRYICQFAQEHISRWGPGS
glycan array binding signal (z-score) (Gal3S6S(b1-4)GlcNAc6S): 0.67
glycan array binding signal (z-score) (Gal4S(b1-4)GlcNAc): 0.136
glycan array binding signal (z-score) (Gal4S6S(b1-4)GlcNAc): 1.78
glycan array binding signal (z-score) (Gal6S(b1-4)Glc): 0.022
glycan array binding signal (z-score) (Gal6S(b1-4)Glc6S): 0.13
glycan array binding signal (z-score) (Gal6S(b1-4)GlcNAc): -0.508
glycan array binding signal (z-score) (Gal6S(b1-4)GlcNAc6S): -0.114
glycan array binding signal (z-score) (GalNAc(a1-3)Gal): 2.44
glycan array binding signal (z-score) (GalNAc(a1-3)GalNAc): -0.581
glycan array binding signal (z-score) (GalNAc(b1-3)Gal): -0.038
glycan array binding signal (z-score) [1]: 0.091
glycan array binding signal (z-score) [2]: 2.11
glycan array binding signal (z-score) (GalNAc(b1-3)GalNAc): -0.074
glycan array binding signal (z-score) (GalNAc(b1-4)GlcNAc): 0.299
glycan array binding signal (z-score) [3]: 1.52
glycan array binding signal (z-score) (Glc(a1-4)Glc): -0.546
glycan array binding signal (z-score) (Glc(a1-6)Glc(a1-6)Glc): -0.679
glycan array binding signal (z-score) (Glc(b1-4)Glc): -0.583
glycan array binding signal (z-score) (Glc(b1-6)Glc): -0.712
glycan array binding signal (z-score) (GlcA(b1-3)Gal): -0.721
glycan array binding signal (z-score) (GlcA(b1-3)GlcNAc): -0.733
glycan array binding signal (z-score) (GlcA(b1-6)Gal): 0.237
glycan array binding signal (z-score) [4]: -0.59
glycan array binding signal (z-score) [5]: -0.411
glycan array binding signal (z-score) [6]: -0.302
glycan array binding signal (z-score) [7]: -0.672
glycan array binding signal (z-score) [8]: -0.255
glycan array binding signal (z-score) [9]: -0.852
glycan array binding signal (z-score) [10]: 1.88
glycan array binding signal (z-score) [11]: 1.11
glycan array binding signal (z-score) [12]: 5.62
glycan array binding signal (z-score) [13]: -0.64
glycan array binding signal (z-score) [14]: 0.689
glycan array binding signal (z-score) [15]: -0.537
glycan array binding signal (z-score) (GlcNAc(b1-3)Gal): -0.774
glycan array binding signal (z-score) [16]: 0.673
glycan array binding signal (z-score) (GlcNAc(b1-3)Gal(b1-4)Glc): -0.645
glycan array binding signal (z-score) [17]: -0.603
glycan array binding signal (z-score) [18]: 0.13
glycan array binding signal (z-score) (GlcNAc(b1-3)GalNAc): -0.74
glycan array binding signal (z-score) (GlcNAc(b1-3)Man): -0.318
glycan array binding signal (z-score) [19]: -0.622
glycan array binding signal (z-score) [20]: -0.681
glycan array binding signal (z-score) [21]: -0.125
glycan array binding signal (z-score) [22]: 0.191
